In the supplement of paper PMC8728848:
The other results are listed elsewhere or left out.

Columns and labels:
Assay in all cases: glycan array binding signal (z-score within array); higher = stronger binding
Details in all cases: glycan notation: IUPAC condensed, linker removed
[1] = molecular target: GlcNAc(b1-3)Gal(b1-4)GlcNAc(b1-3)Gal(b1-4)GlcNAc(b1-2)Man(a1-3)[GlcNAc(b1-3)Gal(b1-4)GlcNAc(b1-3)Gal(b1-4)GlcNAc(b1-2)Man(a1-6)]Man(b1-4)GlcNAc(b1-4)GlcNAc
In short: (§1)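 Glycan array data came from 3228 arrays in the Consortium for Functional Glycomics database, and only arrays with an available protein sequence were kept. Glycan names were put into IUPAC-condensed notation, and columns mapping to the same glycan were averaged. The binding signal is a within-array Z-score, averaged across arrays of one protein sequence run at different concentrations or buffers and across linkers. A negative Z-score can be read as non-binding.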

[2] = molecular target: GlcNAc(b1-3)Gal(b1-4)GlcNAc(b1-3)Gal(b1-4)GlcNAc(b1-2)Man(a1-3)[GlcNAc(b1-3)Gal(b1-4)GlcNAc(b1-3)Gal(b1-4)GlcNAc(b1-2)Man(a1-6)]Man(b1-4)GlcNAc(b1-4)[Fuc(a1-6)]GlcNAc
In short: as §1

[3] = molecular target: GlcNAc(b1-3)Gal(b1-4)GlcNAc(b1-3)Gal(b1-4)GlcNAc(b1-2)[GlcNAc(b1-3)Gal(b1-4)GlcNAc(b1-3)Gal(b1-4)GlcNAc(b1-6)]Man(a1-6)[GlcNAc(b1-3)Gal(b1-4)GlcNAc(b1-3)Gal(b1-4)GlcNAc(b1-2)Man(a1-3)]Man(b1-4)GlcNAc(b1-4)[Fuc(a1-6)]GlcNAc
In short: as §1

[4] = molecular target: GlcNAc(b1-3)Gal(b1-4)GlcNAc(b1-3)Gal(b1-4)GlcNAc(b1-3)Gal(b1-4)GlcNAc(b1-2)Man(a1-3)[GlcNAc(b1-3)Gal(b1-4)GlcNAc(b1-3)Gal(b1-4)GlcNAc(b1-3)Gal(b1-4)GlcNAc(b1-2)Man(a1-6)]Man(b1-4)GlcNAc(b1-4)GlcNAc
In short: as §1

[5] = molecular target: GlcNAc(b1-3)Gal(b1-4)GlcNAc(b1-3)Gal(b1-4)GlcNAc(b1-3)Gal(b1-4)GlcNAc(b1-2)Man(a1-3)[GlcNAc(b1-3)Gal(b1-4)GlcNAc(b1-3)Gal(b1-4)GlcNAc(b1-3)Gal(b1-4)GlcNAc(b1-2)Man(a1-6)]Man(b1-4)GlcNAc(b1-4)[Fuc(a1-6)]GlcNAc
In short: as §1

[6] = molecular target: GlcNAc(b1-3)Gal(b1-4)GlcNAc(b1-3)Gal(b1-4)GlcNAc(b1-3)Gal(b1-4)GlcNAc(b1-2)[GlcNAc(b1-3)Gal(b1-4)GlcNAc(b1-3)Gal(b1-4)GlcNAc(b1-3)Gal(b1-4)GlcNAc(b1-6)]Man(a1-6)[GlcNAc(b1-3)Gal(b1-4)GlcNAc(b1-3)Gal(b1-4)GlcNAc(b1-3)Gal(b1-4)GlcNAc(b1-2)Man(a1-3)]Man(b1-4)GlcNAc(b1-4)[Fuc(a1-6)]GlcNAc
In short: as §1

[7] = molecular target: GlcNAc(b1-3)Gal(b1-4)GlcNAc(b1-3)Gal(b1-4)GlcNAc(b1-3)Gal(b1-4)GlcNAc(b1-3)Gal(b1-4)GlcNAc(b1-2)Man(a1-3)[GlcNAc(b1-3)Gal(b1-4)GlcNAc(b1-3)Gal(b1-4)GlcNAc(b1-3)Gal(b1-4)GlcNAc(b1-3)Gal(b1-4)GlcNAc(b1-2)Man(a1-6)]Man(b1-4)GlcNAc(b1-4)GlcNAc
In short: as §1

[8] = molecular target: GlcNAc(b1-3)Gal(b1-4)GlcNAc(b1-3)Gal(b1-4)GlcNAc(b1-3)Gal(b1-4)GlcNAc(b1-3)Gal(b1-4)GlcNAc(b1-2)Man(a1-3)[GlcNAc(b1-3)Gal(b1-4)GlcNAc(b1-3)Gal(b1-4)GlcNAc(b1-3)Gal(b1-4)GlcNAc(b1-3)Gal(b1-4)GlcNAc(b1-2)Man(a1-6)]Man(b1-4)GlcNAc(b1-4)[Fuc(a1-6)]GlcNAc
In short: as §1

[9] = molecular target: GlcNAc(b1-3)Gal(b1-4)GlcNAc(b1-3)Gal(b1-4)GlcNAc(b1-3)Gal(b1-4)GlcNAc(b1-3)Gal(b1-4)GlcNAc(b1-2)[GlcNAc(b1-3)Gal(b1-4)GlcNAc(b1-3)Gal(b1-4)GlcNAc(b1-3)Gal(b1-4)GlcNAc(b1-3)Gal(b1-4)GlcNAc(b1-6)]Man(a1-6)[GlcNAc(b1-3)Gal(b1-4)GlcNAc(b1-3)Gal(b1-4)GlcNAc(b1-3)Gal(b1-4)GlcNAc(b1-3)Gal(b1-4)GlcNAc(b1-2)Man(a1-3)]Man(b1-4)GlcNAc(b1-4)[Fuc(a1-6)]GlcNAc
In short: as §1

[10] = molecular target: GlcNAc(b1-3)Gal(b1-4)GlcNAc(b1-3)Gal(b1-4)GlcNAc(b1-3)GalNAc
In short: as §1

[11] = molecular target: GlcNAc(b1-3)Gal(b1-4)GlcNAc(b1-3)GalNAc
In short: as §1

[12] = molecular target: GlcNAc(b1-3)Gal(b1-4)GlcNAc(b1-3)[GlcNAc(b1-3)Gal(b1-4)GlcNAc(b1-3)]GalNAc
In short: as §1

[13] = molecular target: GlcNAc(b1-3)Gal(b1-4)GlcNAc(b1-6)[Gal(b1-3)]GalNAc
In short: as §1

[14] = molecular target: GlcNAc(b1-3)Gal(b1-4)GlcNAc(b1-6)[GlcNAc(b1-3)Gal(b1-3)]GalNAc
In short: as §1

[15] = molecular target: GlcNAc(b1-3)Gal(b1-4)GlcNAc(b1-6)[GlcNAc(b1-3)]Gal(b1-4)GlcNAc
In short: as §1

GlcNAc(b1-3)GalNAc = molecular target: GlcNAc(b1-3)GalNAc
In short: as §1

GlcNAc(b1-3)Man = molecular target: GlcNAc(b1-3)Man
In short: as §1

[16] = molecular target: GlcNAc(b1-3)[GlcNAc(b1-4)][GlcNAc(b1-6)]GlcNAc
In short: as §1

[17] = molecular target: GlcNAc(b1-3)[GlcNAc(b1-6)]Gal(b1-4)GlcNAc
In short: as §1

[18] = molecular target: GlcNAc(b1-3)[GlcNAc(b1-6)]GalNAc
In short: as §1

[19] = molecular target: GlcNAc(b1-4)Gal(b1-4)GlcNAc
In short: as §1

GlcNAc(b1-4)GlcNAc = molecular target: GlcNAc(b1-4)GlcNAc
In short: as §1

[20] = molecular target: GlcNAc(b1-4)GlcNAc(b1-4)GlcNAc
In short: as §1

[21] = molecular target: GlcNAc(b1-4)GlcNAc(b1-4)GlcNAc(b1-4)GlcNAc(b1-4)GlcNAc
In short: as §1

[22] = molecular target: GlcNAc(b1-4)GlcNAc(b1-4)GlcNAc(b1-4)GlcNAc(b1-4)GlcNAc(b1-4)GlcNAc
In short: as §1

[23] = molecular target: GlcNAc(b1-4)[GlcNAc(b1-6)]GalNAc
In short: as §1

[24] = molecular target: GlcNAc(b1-6)Gal(b1-4)GlcNAc
In short: as §1

GlcNAc(b1-6)GalNAc = molecular target: GlcNAc(b1-6)GalNAc
In short: as §1

[25] = molecular target: GlcNAc6S(b1-3)Gal(b1-4)GlcNAc
In short: as §1

Kdn(a2-3)Gal(b1-3)GalNAc = molecular target: Kdn(a2-3)Gal(b1-3)GalNAc
In short: as §1

Kdn(a2-3)Gal(b1-3)GlcNAc = molecular target: Kdn(a2-3)Gal(b1-3)GlcNAc
In short: as §1

Kdn(a2-3)Gal(b1-4)Glc = molecular target: Kdn(a2-3)Gal(b1-4)Glc
In short: as §1

Kdn(a2-3)Gal(b1-4)GlcNAc = molecular target: Kdn(a2-3)Gal(b1-4)GlcNAc
In short: as §1

[26] = molecular target: Kdn(a2-3)Gal(b1-4)[Fuc(a1-3)]GlcNAc
In short: as §1

Kdn(a2-6)Gal(b1-4)GlcNAc = molecular target: Kdn(a2-6)Gal(b1-4)GlcNAc
In short: as §1

[27] = molecular target: Man(a1-2)Man(a1-2)Man(a1-3)Man
In short: as §1

[28] = molecular target: Man(a1-2)Man(a1-2)Man(a1-6)[Man(a1-3)]Man
In short: as §1

Man(a1-2)Man(a1-3)Man = molecular target: Man(a1-2)Man(a1-3)Man
In short: as §1

B1: Sebin2 (Coprinopsis cinerea), A8PE78 (protein)
chain: MTTPFYAYCHNVQDDNTWRLGLVFANRSTADEWWRAISEATSSIPITKSITRVTPQYYTHDIRVWNMYNFFVDGNIKSISDKFRGRLFITLEYDRSGRGVSVFPPLHIVDHVSGNWYYIRSKTAPHLFWFYDETRNAIYASKEKRTRFKVSIRNPSPQTPKDAIMINSDDVVIHIKESLYVGVDSYLGHIIPTRAYRTFKFGELEGGAIAGIEVAENAEERCSSTFDGASLYFVGPDSSSPGEPWELV
glycan array binding signal (z-score) [1]: -0.255
glycan array binding signal (z-score) [2]: -0.041
glycan array binding signal (z-score) [3]: 0.486
glycan array binding signal (z-score) [4]: 0.009
glycan array binding signal (z-score) [5]: -0.017
glycan array binding signal (z-score) [6]: 0.275
glycan array binding signal (z-score) [7]: -0.343
glycan array binding signal (z-score) [8]: -0.166
glycan array binding signal (z-score) [9]: 0.448
glycan array binding signal (z-score) [10]: -0.368
glycan array binding signal (z-score) [11]: -0.027
glycan array binding signal (z-score) [12]: -0.383
glycan array binding signal (z-score) [13]: -0.253
glycan array binding signal (z-score) [14]: -0.174
glycan array binding signal (z-score) [15]: -0.21
glycan array binding signal (z-score) (GlcNAc(b1-3)GalNAc): -0.413
glycan array binding signal (z-score) (GlcNAc(b1-3)Man): -0.177
glycan array binding signal (z-score) [16]: -0.339
glycan array binding signal (z-score) [17]: 0.177
glycan array binding signal (z-score) [18]: 0.087
glycan array binding signal (z-score) [19]: 0.023
glycan array binding signal (z-score) (GlcNAc(b1-4)GlcNAc): -0.114
glycan array binding signal (z-score) [20]: -0.621
glycan array binding signal (z-score) [21]: -0.339
glycan array binding signal (z-score) [22]: -0.328
glycan array binding signal (z-score) [23]: -0.386
glycan array binding signal (z-score) [24]: -0.437
glycan array binding signal (z-score) (GlcNAc(b1-6)GalNAc): -0.229
glycan array binding signal (z-score) [25]: -0.292
glycan array binding signal (z-score) (Kdn(a2-3)Gal(b1-3)GalNAc): -0.28
glycan array binding signal (z-score) (Kdn(a2-3)Gal(b1-3)GlcNAc): 0.161
glycan array binding signal (z-score) (Kdn(a2-3)Gal(b1-4)Glc): 0.082
glycan array binding signal (z-score) (Kdn(a2-3)Gal(b1-4)GlcNAc): 0.172
glycan array binding signal (z-score) [26]: -0.144
glycan array binding signal (z-score) (Kdn(a2-6)Gal(b1-4)GlcNAc): -0.048
glycan array binding signal (z-score) [27]: -0.323
glycan array binding signal (z-score) [28]: -0.26
glycan array binding signal (z-score) (Man(a1-2)Man(a1-3)Man): -0.442
